Test results published in paper PMC9911399, “Two distinct binding modes provide the RNA-binding protein RbFox with extraordinary sequence specificity”.
Changes are numbered by the printed parent chain; changes in the protein carry UniProt numbers. The list shows a part of the results.

T1: RBFOX1 RRM RbFoxmut (Fox-RRM*) (Homo sapiens, UniProt Q9NWB1 109-208, R118D;E147R;N151S;E152T)
T1 sequence: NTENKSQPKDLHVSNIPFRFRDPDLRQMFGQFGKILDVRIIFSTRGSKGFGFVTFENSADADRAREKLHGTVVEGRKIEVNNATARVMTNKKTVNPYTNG

B1: CGAGCUU (DNA:RNA)
RNA: GGGAGACCGGAAUUCAGAUUGUCCCGAGCUUUUAAAUCCCGUCGUAGCCACCA
DNA 1: CAATCTGAATTCCGGTCTCCC
DNA 2: TGGTGGCTACGACGGGATT
B2: AACUUGG (DNA:RNA)
RNA: GGGAGACCGGAAUUCAGAUUGUCCAACUUGGUUAAAUCCCGUCGUAGCCACCA
DNA 1: CAATCTGAATTCCGGTCTCCC
DNA 2: TGGTGGCTACGACGGGATT
B3: GGUGCGG (DNA:RNA)
RNA: B1 RNA with C25G, A27U, U30G, U31G
DNA 1: CAATCTGAATTCCGGTCTCCC
DNA 2: TGGTGGCTACGACGGGATT
B4: CGAUACA (DNA:RNA)
RNA: B1 RNA with G28U, C29A, U30C, U31A
DNA 1: CAATCTGAATTCCGGTCTCCC
DNA 2: TGGTGGCTACGACGGGATT
B5: GUUAGAA (DNA:RNA)
RNA: GGGAGACCGGAAUUCAGAUUGUCCGUUAGAAUUAAAUCCCGUCGUAGCCACCA
DNA 1: CAATCTGAATTCCGGTCTCCC
DNA 2: TGGTGGCTACGACGGGATT
B6: AUACAGG (DNA:RNA)
RNA: B2 RNA with A26U, C27A, U28C, U29A
DNA 1: CAATCTGAATTCCGGTCTCCC
DNA 2: TGGTGGCTACGACGGGATT
B7: UGGAUAG (DNA:RNA)
RNA: B2 RNA with A25U, A26G, C27G, U28A, G30A
DNA 1: CAATCTGAATTCCGGTCTCCC
DNA 2: TGGTGGCTACGACGGGATT
B8: CCCUUUG (DNA:RNA)
RNA: B2 RNA with A25C, A26C, G30U
DNA 1: CAATCTGAATTCCGGTCTCCC
DNA 2: TGGTGGCTACGACGGGATT
B9: AACCCGU (DNA:RNA)
RNA: B2 RNA with U28C, U29C, G31U
DNA 1: CAATCTGAATTCCGGTCTCCC
DNA 2: TGGTGGCTACGACGGGATT
B10: AGCAUUU (DNA:RNA)
RNA: B2 RNA with A26G, U28A, G30U, G31U
DNA 1: CAATCTGAATTCCGGTCTCCC
DNA 2: TGGTGGCTACGACGGGATT
B11: CCGUAGA (DNA:RNA)
RNA: B2 RNA with A25C, A26C, C27G, U29A, G31A
DNA 1: CAATCTGAATTCCGGTCTCCC
DNA 2: TGGTGGCTACGACGGGATT
B12: AUUGGAG (DNA:RNA)
RNA: B5 RNA with G25A, A28G, A31G
DNA 1: CAATCTGAATTCCGGTCTCCC
DNA 2: TGGTGGCTACGACGGGATT
B13: CAUUCCU (DNA:RNA)
RNA: B1 RNA with G26A, A27U, G28U, U30C
DNA 1: CAATCTGAATTCCGGTCTCCC
DNA 2: TGGTGGCTACGACGGGATT
B14: GCGAUUC (DNA:RNA)
RNA: B5 RNA with U26C, U27G, G29U, A30U, A31C
DNA 1: CAATCTGAATTCCGGTCTCCC
DNA 2: TGGTGGCTACGACGGGATT
B15: UCACCGG (DNA:RNA)
RNA: B2 RNA with A25U, A26C, C27A, U28C, U29C
DNA 1: CAATCTGAATTCCGGTCTCCC
DNA 2: TGGTGGCTACGACGGGATT
B16: GCGCGAG (DNA:RNA)
RNA: B5 RNA with U26C, U27G, A28C, A31G
DNA 1: CAATCTGAATTCCGGTCTCCC
DNA 2: TGGTGGCTACGACGGGATT
B17: AAGUGGU (DNA:RNA)
RNA: B2 RNA with C27G, U29G, G31U
DNA 1: CAATCTGAATTCCGGTCTCCC
DNA 2: TGGTGGCTACGACGGGATT
B18: AACGUAA (DNA:RNA)
RNA: B2 RNA with U28G, G30A, G31A
DNA 1: CAATCTGAATTCCGGTCTCCC
DNA 2: TGGTGGCTACGACGGGATT
B19: AAAACGA (DNA:RNA)
RNA: B2 RNA with C27A, U28A, U29C, G31A
DNA 1: CAATCTGAATTCCGGTCTCCC
DNA 2: TGGTGGCTACGACGGGATT
B20: CUGGCGG (DNA:RNA)
RNA: B1 RNA with G26U, A27G, U30G, U31G
DNA 1: CAATCTGAATTCCGGTCTCCC
DNA 2: TGGTGGCTACGACGGGATT
B21: UUCGACG (DNA:RNA)
RNA: B2 RNA with A25U, A26U, U28G, U29A, G30C
DNA 1: CAATCTGAATTCCGGTCTCCC
DNA 2: TGGTGGCTACGACGGGATT
B22: CCUGUUG (DNA:RNA)
RNA: B1 RNA with G26C, A27U, C29U, U31G
DNA 1: CAATCTGAATTCCGGTCTCCC
DNA 2: TGGTGGCTACGACGGGATT
B23: CCCUACA (DNA:RNA)
RNA: B2 RNA with A25C, A26C, U29A, G30C, G31A
DNA 1: CAATCTGAATTCCGGTCTCCC
DNA 2: TGGTGGCTACGACGGGATT
B24: GCGUCUU (DNA:RNA)
RNA: B1 RNA with C25G, G26C, A27G, G28U
DNA 1: CAATCTGAATTCCGGTCTCCC
DNA 2: TGGTGGCTACGACGGGATT
B25: UCGUAGC (DNA:RNA)
RNA: B2 RNA with A25U, A26C, C27G, U29A, G31C
DNA 1: CAATCTGAATTCCGGTCTCCC
DNA 2: TGGTGGCTACGACGGGATT
B26: AACCGAU (DNA:RNA)
RNA: B2 RNA with U28C, U29G, G30A, G31U
DNA 1: CAATCTGAATTCCGGTCTCCC
DNA 2: TGGTGGCTACGACGGGATT
B27: AUAAACC (DNA:RNA)
RNA: B5 RNA with G25A, U27A, G29A, A30C, A31C
DNA 1: CAATCTGAATTCCGGTCTCCC
DNA 2: TGGTGGCTACGACGGGATT
B28: GGUGUAA (DNA:RNA)
RNA: B5 RNA with U26G, A28G, G29U
DNA 1: CAATCTGAATTCCGGTCTCCC
DNA 2: TGGTGGCTACGACGGGATT
B29: CGACGCA (DNA:RNA)
RNA: B1 RNA with G28C, C29G, U30C, U31A
DNA 1: CAATCTGAATTCCGGTCTCCC
DNA 2: TGGTGGCTACGACGGGATT
B30: GGGCUUA (DNA:RNA)
RNA: B1 RNA with C25G, A27G, G28C, C29U, U31A
DNA 1: CAATCTGAATTCCGGTCTCCC
DNA 2: TGGTGGCTACGACGGGATT
B31: AAUAGAA (DNA:RNA)
RNA: B5 RNA with G25A, U26A
DNA 1: CAATCTGAATTCCGGTCTCCC
DNA 2: TGGTGGCTACGACGGGATT

What follows are binders tested against T1, RBFOX1 RRM RbFoxmut (Fox-RRM*) (assay: EMSA; HiTS-Eq, 1 nM pool, 10 min; buffer printed only for the single-RNA assays: 10 mM Tris pH 7.5, 150 mM NaCl, 3.4 mM EDTA, 0.001% NP-40, 30 C). Conditions: tags: His6 N-terminal (pET28a); label: 5' 32P.
Outline: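 Purified RbFox RRM, wild type or mutant, was incubated for 10 min in 50 µL with 1 nM of a 5′-radiolabelled RNA pool carrying 7 randomized nucleotides, whose flanks were annealed to DNA oligonucleotides, over a series of increasing protein concentrations. Unbound RNA was resolved on 8% native PAGE, cut out, reverse-transcribed, barcoded by PCR and sequenced on an Illumina HiSeq 2500. Relative association constants were derived from changes in read counts for each RNA species versus the control reaction and normalised to the cognate motif.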

Row | Binder | binding signal
1 | B1 | 0.107 KA relative to UGCAUGU
2 | B2 | 0.0716 KA relative to UGCAUGU
3 | B3 | 0.0972 KA relative to UGCAUGU
4 | B4 | 0.0906 KA relative to UGCAUGU
5 | B5 | 0.104 KA relative to UGCAUGU
6 | B6 | 0.117 KA relative to UGCAUGU
7 | B7 | 0.144 KA relative to UGCAUGU
8 | B8 | 0.0801 KA relative to UGCAUGU
9 | B9 | 0.0816 KA relative to UGCAUGU
10 | B10 | 0.112 KA relative to UGCAUGU
11 | B11 | 0.13 KA relative to UGCAUGU
12 | B12 | 0.124 KA relative to UGCAUGU
13 | B13 | 0.0964 KA relative to UGCAUGU
14 | B14 | 0.0849 KA relative to UGCAUGU
15 | B15 | 0.0678 KA relative to UGCAUGU
16 | B16 | 0.127 KA relative to UGCAUGU

Row | Binder | binding signal
17 | B17 | 0.109 KA relative to UGCAUGU
18 | B18 | 0.096 KA relative to UGCAUGU
19 | B19 | 0.0531 KA relative to UGCAUGU
20 | B20 | 0.0885 KA relative to UGCAUGU
21 | B21 | 0.0706 KA relative to UGCAUGU
22 | B22 | 0.136 KA relative to UGCAUGU
23 | B23 | 0.106 KA relative to UGCAUGU
24 | B24 | 0.0648 KA relative to UGCAUGU
25 | B25 | 0.107 KA relative to UGCAUGU
26 | B26 | 0.0947 KA relative to UGCAUGU
27 | B27 | 0.0693 KA relative to UGCAUGU
28 | B28 | 0.0999 KA relative to UGCAUGU
29 | B29 | 0.117 KA relative to UGCAUGU
30 | B30 | 0.107 KA relative to UGCAUGU
31 | B31 | 0.111 KA relative to UGCAUGU
